Experimental data: PubChem BioAssay AID1030 (National Center for Advancing Translational Sciences (NCATS), 2008)
About 16,000 (7.3%) of roughly 220,000 compounds were called active. This list was built around the results that the source calls inconclusive (neither active nor inactive); the mix of calls is not that of the screen. Calls follow the shape of the dose curve; as a rule, active = well fitted inhibition curve with a large enough effect (not every such curve was filed as active); inconclusive = small, poorly fitted or top-dose-only effect, or another doubt; inactive = no such curve, though single readings can be large or run the other way. Potencies of inconclusive entries are doubtful fits and often do not repeat.

The compounds below were run against Aldehyde dehydrogenase 1A1 (Homo sapiens) (UniProt P00352) (assay: qHTS Assay for Inhibitors of Aldehyde Dehydrogenase 1 (ALDH1A1)). Conditions: Purified ALDH1A1, NADH fluorescence, propionaldehyde substrate; series mostly up to 75.3 µM.
Sequence of UniProt P00352 (P00352 whole entry, looked up): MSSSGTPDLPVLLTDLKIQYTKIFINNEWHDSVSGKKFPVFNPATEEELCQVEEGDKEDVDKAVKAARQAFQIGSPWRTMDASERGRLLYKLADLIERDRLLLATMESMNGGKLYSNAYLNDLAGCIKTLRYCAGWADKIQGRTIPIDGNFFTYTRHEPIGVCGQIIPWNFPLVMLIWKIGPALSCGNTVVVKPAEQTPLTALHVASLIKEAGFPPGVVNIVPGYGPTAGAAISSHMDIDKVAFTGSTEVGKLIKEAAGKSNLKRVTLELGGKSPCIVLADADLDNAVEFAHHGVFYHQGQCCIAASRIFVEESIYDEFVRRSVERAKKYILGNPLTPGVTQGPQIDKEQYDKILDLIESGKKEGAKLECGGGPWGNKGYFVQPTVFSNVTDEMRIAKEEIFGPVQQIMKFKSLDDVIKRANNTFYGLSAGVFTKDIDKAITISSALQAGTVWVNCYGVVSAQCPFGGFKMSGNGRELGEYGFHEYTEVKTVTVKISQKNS
Potency is read from the fitted curve at half-maximal effect; tags tell the direction and shape of the fitted curve.

Potency, inactive:
Cc1ccc(C(=O)Nc2c(C)cc(-c3ccccc3)oc2=O)cc1
Cc1ccc(-n2nnnc2C(Cl)c2nnnn2-c2ccc(C)cc2)cc1
CC1(C)CC(=O)/C(=C(\O)Cc2ccccc2)C(=NCCCCCC(=O)O)C1
Cc1nc2c3cc(F)ccc3n(CCN3CCCCC3)c2s1
C#CCOC(=O)c1ccc(-n2cncn2)nc1
CCCn1c(NC(=O)c2ccco2)nc2ccccc21
CCOC(=O)C1=C(C)N=C2SC(C)C(=O)N2C1c1ccc(OC(C)=O)c(OCC)c1 (stereo not drawn)
CCn1cc(CNC(=O)/C=C/c2ccc([N+](=O)[O-])cc2)cn1
O=C(COC(=O)c1cccnc1Cl)Nc1cc(S(=O)(=O)N2CCCCC2)ccc1Cl
CCOC(=O)Cn1nc(Cc2ccccc2)c2ccccc2c1=O
Cc1cccc(NC(=O)C2CCCC2)c1
Fc1ccc(-n2c(-c3ccc4ccccc4n3)n[nH]c2=S)cc1Cl
COc1ccc(S(=O)(=O)N2CCNC(=O)C2)cc1Br
COC(=O)C1=C(C)N(c2ccc(C)c(C)c2)/C(=C/c2ccco2)C1=O

Potency, active:
O=C1COc2ccc(C(=O)C[n+]3cccc(O)c3)cc2N1 20 µM
CC(=O)[C@@H]1[C@H]2[C@H](C(=O)[C@H]3OC[C@@H]2O3)[C@H]2C=Cc3ccccc3N21 25.1 µM
O=C1C(Cl)=C(NCC2CCCO2)C(=O)N1C1CCCCC1 (stereo not drawn) 3.98 µM
c1ccc(Cn2c(NCc3ccncc3)nc3ccccc32)cc1 25.1 µM
O=CN1CCN(C(C(=O)NC2CCCCC2)c2cc3c(cc2[N+](=O)[O-])OCO3)CC1 (stereo not drawn) 5.01 µM
O=C(Nc1ccc(F)cc1)C1CCN(c2nnnn2-c2ccccc2)CC1 14.1 µM
COC(=O)c1ccc(CSc2cc(C)c3cc(C)cc(C)c3n2)o1 12.6 µM
CCN(Cc1ccncc1)Cc1c(O)ccc2ccccc12 10 µM

Potency, inconclusive:
Cc1cccc(C(=O)N2CCC(=O)N([C@H](COCc3cccc(Cl)c3)Cc3ccccc3)CC2)c1 39.8 µM [inhibitor, single point]
Cc1c(C)n(CC(O)CNc2ccccc2)c2ccccc12 (stereo not drawn) 39.8 µM [inhibitor, single point]
CC1(C)CC(=O)c2c(O)cc(O)cc2O1 44.7 µM [inhibitor, single point]
Cc1ccc2c(Cl)c(C(=O)N/N=C/c3cccn3C)sc2c1 28.2 µM [inhibitor, single point]
CC(C)(C)NC(=O)NC(=O)CSc1nnc(COc2ccccc2Cl)o1 44.7 µM [inhibitor, single point]
CCOC(=O)N1CCN(CC(=O)N2c3ccccc3CC2C)CC1 (stereo not drawn) 39.8 µM [inhibitor, single point]
O=C(c1sc2cc(F)ccc2c1Cl)N1CCN(c2ccccc2)CC1 39.8 µM [inhibitor, single point]
COc1ccc(CNC(=O)C/C(C)=N/NC(=O)c2ccc([N+](=O)[O-])cc2Cl)cc1 8.91 µM [inhibitor, single point]
CCOC(=O)NN1C(=O)c2ccccc2NC1c1ccccn1 (stereo not drawn) 22.4 µM [inhibitor, partial curve]
CC(=O)NC(C)C(=O)OCC(=O)c1ccc(Cl)s1 (stereo not drawn) 28.2 µM [inhibitor, single point]
COc1ccc(NC(=O)NCCN2C(=O)C3C4C=CC(C4)C3C2=O)cc1 (stereo not drawn) 15.8 µM [inhibitor, partial curve]
Cc1ccc(NC(=S)NNC(=O)c2ccco2)cc1 39.8 µM [inhibitor, single point]
c1ccc(-c2cc3c(ccc4nonc43)nn2)cc1 28.2 µM [inhibitor, single point]
N=c1oc2ccc3ccccc3c2cc1-c1nnc2n1CCCCC2 35.5 µM [inhibitor, partial curve]
Cc1ccc(C(=O)N2CCN(c3cccc(Cl)c3)CC2)cc1C 31.6 µM [inhibitor, single point]
N#Cc1ccc(C23CC4CC(CC(C4)C2)C3)[nH]c1=O 35.5 µM [inhibitor, single point]
CCN(CC)c1ccc(/C=N/NC(=S)NCc2ccc(OC)cc2)cc1 35.5 µM [inhibitor, single point]
CC(C)n1cnc2cc(NCc3ccccn3)ccc21 28.2 µM [inhibitor, single point]
O=C(CCSc1nnc2ccc3ccccc3n12)Nc1ccc(F)cc1 39.8 µM [inhibitor, single point]
O=C(O)Cn1cc(/C=C2/SC(=O)N(CC(=O)N3CCCCCC3)C2=O)c2ccccc21 20 µM [inhibitor, partial curve, poor fit]
O=C(NCc1ccco1)c1ccccc1-c1nc(-c2ccc(F)cc2)no1 44.7 µM [inhibitor, single point]
COc1ccc(CCNc2nc(-c3cccc(NC(C)=O)c3)cs2)cc1OC 39.8 µM [inhibitor, single point]
COc1cccc(Cn2c(=O)c(-c3ccc(Cl)cc3)nc3cnc(N4CCOCC4)nc32)c1 35.5 µM [inhibitor, partial curve]
O=S(=O)(Nc1ncnc2sc3c(c12)CCC3)c1cc(F)ccc1F 39.8 µM [inhibitor, single point]
Cc1nc(NC(=O)c2ccccc2)sc1-c1csc(Nc2ccc(Cl)cc2Cl)n1 25.1 µM [inhibitor, single point]
CCc1nnc2sc(-c3ccc(NC(=O)c4ccc5c(c4)OCCO5)cc3)nn12 17.8 µM [inhibitor, partial curve]
